Source: the supplement of paper PMC3334620
In all, about 33,000 sequences were measured (“E-score (-0.5 to 0.5)”: median about -0.013, highest 2% from about 0.3 on). The list shows a part of the results.

Target: T1, Msn1 (UniProt P22148)
T1 sequence: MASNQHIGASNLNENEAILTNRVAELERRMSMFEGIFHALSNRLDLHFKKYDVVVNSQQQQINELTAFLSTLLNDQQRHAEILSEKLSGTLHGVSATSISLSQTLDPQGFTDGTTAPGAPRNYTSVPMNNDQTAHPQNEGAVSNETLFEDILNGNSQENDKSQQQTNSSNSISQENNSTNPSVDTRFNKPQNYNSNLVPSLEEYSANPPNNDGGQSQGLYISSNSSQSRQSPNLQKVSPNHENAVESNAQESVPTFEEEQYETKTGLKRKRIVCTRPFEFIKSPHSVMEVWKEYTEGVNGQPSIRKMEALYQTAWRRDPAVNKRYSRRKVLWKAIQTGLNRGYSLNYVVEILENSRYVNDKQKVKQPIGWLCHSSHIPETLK
Assay: PBM E-score (8-mer binding enrichment) (E-score (-0.5 to 0.5)); higher = stronger / more preferred TF binding; most listed sequences are background and not binding sites
Conditions: protein concentration: 200 nM; construct: GST-full length
Summary of the method: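 Yeast transcription factors, full-length or as DNA-binding domains, were expressed with a GST tag using PURExpress in vitro transcription/translation. At about 100-200 nM they were applied to universal all-10-mer Agilent arrays, double-stranded by primer extension on fresh or once-stripped slides. Fluorescent anti-GST detected bound protein, and masliner normalised the scans. E-scores for ungapped eight-base words, pooled with reverse complements, came from the Universal PBM Analysis Suite.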

Sequence	PBM E-score
ACAGCGCG	0.0332
ATCTGTGC	-0.047
AGAGTGAA	0.138
AGAGGCGC	-0.17
ACGACCAC	-0.172
GGCTAGAA	0.0779
ACGCCCCT	-0.243
ACGTTCCT	-0.0236
CTAACAAG	-0.00205
GGAATACA	0.136
ACCAAGAG	-0.0524
CGGCGCCC	-0.167
ATCGGGGA	0.0821
AGCGGATA	-0.0754
CGGCTCTC	-0.179
GAGCTCAA	0.097
CTTTGGGA	0.00966
AGGATCCT	-0.162
CTGTACAG	0.0843
CCCCACAA	0.0582
ATGCTTGC	-0.0773
ACATTACG	0.221
CGAAGCTA	0.0736
GCAACAAA	0.165
CGCCTCTA	-0.0484

Sequence	PBM E-score
CCGACAGA	0.0804
GCGCTTCA	-0.0683
AAGACCAA	-0.139
AAGGGGCG	-0.231
GAGACTGC	-0.0722
TCGTGTCA	0.138
ACTGATTA	0.0723
CCCTGCGC	-0.169
AAACTATG	-0.0995
ACGTTAAA	0.15
CCACGTAG	-0.299
CGTTAAAG	-0.00103
CGTGCTTC	-0.0761
AACTTATC	0.0748
ATCACCCC	-0.116
AGCCCAGA	-0.108
CTAAAAAC	0.0761
CCTAGCCG	-0.114
GCGCGTCC	0.161
GAGGTTCA	0.0372
ACAACAGA	0.0792
TACCCGAA	-0.0563
CGCACCTA	-0.249
ACATATCG	0.231
CGTACTTC	0.006

Sequence	PBM E-score
ATAGGCAG	0.0587
AAACCGAT	-0.0421
CAGCGGCC	-0.146
GCGGCTCA	-0.112
ATGTGGTG	-0.111
CGTTATAG	0.0295
CATTTCTC	0.165
TGAGAAAA	0.00862
GCACTGCC	-0.0902
AACCCCCA	-0.304
AAGTGCGG	0.0388
CCATTGTC	0.311
GCCAGTAA	-0.185
ACATGTTC	0.147
ACAATAGA	0.243
ATTGGGGG	-0.304
AGCCGTAG	-0.125
GGCCGGCA	0.142
TGACCACA	-0.0111
CGATAGAG	-0.0437
CGCACTCA	0.00606
ATTCCAAA	0.155
AAACATAG	-0.131
ACTTCTAG	-0.344
CTCCCACC	-0.384

Sequence	PBM E-score
GAGGCCGA	-0.142
CGTCAGGC	-0.117
GATGCCAA	-0.118
CGTGCTCA	-0.00047
CCACGACG	-0.154
GCGTACGA	-0.0483
TAATAGGA	0.139
ACTTTATG	0.161
CGTCTAGA	-0.0164
AATTGTGC	0.0159
CGGCCGCC	-0.155
CCTATCGA	0.0692
ATAAGTAT	0.0424
CCGCTCCC	-0.267
AGACTCAC	-0.068
ATATCTAG	-0.0675
CTTCGTTA	-0.0607
CAGGTTAG	-0.221
TCTTTAAA	0.234
AGGGTTTA	0.111
ATTGAGGG	-0.237
GTAGCGAA	-0.0704
CAATTATC	0.164
CAGCGCCA	-0.128
ATTCGCCG	0.154

Sequence	PBM E-score
CGACACCA	0.00984
CGCGTAAG	0.0374
GAACGCCC	-0.195
ACTGGAAG	-0.126
GCCTAAGC	-0.136
AATTACGT	0.0895
ATGTGATA	0.0977
AATTTGGC	0.00267
ACGAGCGC	-0.156
ATCCCCCA	-0.369
CAGCTCTC	-0.257
CAGCAGTA	-0.117
GCATTACC	-0.227
AAATCTTG	0.0194
TAGGACTA	0.257
AAGACGGG	0.0296
GACCGTAA	-0.0337
AGACGGAC	0.219
TAGCATAA	-0.12
CACAATAG	0.0552
GGCCGGAA	-0.174
AACGTCGA	0.121
CAAACGTG	0.0734
ACATATGG	0.262
GGCGCAGA	0.0291

Sequence	PBM E-score
CTACAACC	-0.109
CTCGCTTC	-0.113
ACGGTAGC	0.0446
TCAGCACA	0.133
ACGGATGA	-0.0366
ATCCAGAT	-0.127
ACGTTAGT	0.0228
CCCCTTCA	-0.245
GGCTAGGA	-0.129
GTTCGGAA	0.135
CTCCATGC	-0.366
AAATGCTT	0.0558
AATCCGCC	-0.00324
CCGATCGG	0.0495
GAGTCGGC	-0.0725
AGGGTGTG	-0.245
ACCTTCGT	0.0107
CTCTTTCA	-0.0847
CGTCAGAA	-0.258
GCGTACCA	-0.11
AGTGGCGC	-0.115
GGCAGACC	-0.327
ACTAGCCT	0.108
ACCAGGAA	-0.0403
ACACCCCT	-0.223

Sequence	PBM E-score
AACCTGGT	0.00051
ACCCCGCC	-0.244
ACCAACAG	-0.127
CCCGCCCA	-0.126
CAATCTGA	-0.0105
CAGCTCAC	-0.0821
CTTTGTCC	0.485
GAAGTATA	0.161
GAGCATGA	-0.144
CCTGCACC	-0.233
CATTATCC	0.2
CACGGTAC	-0.102
GCGTTCTA	-0.0232
AAAGATGG	-0.0523
ATCGTTTC	-0.0386
CCAGAACA	0.0363
AAAACTAG	0.00518
GCAAAGCC	-0.278
TCTTGACA	0.167
ACTAAGTG	-0.0648
CGGTCTAA	-0.0696
CGGGCGTA	-0.0504
GAGGAGCA	-0.184
CGGAGCGC	-0.0677
GTTCTGAA	0.113

Sequence	PBM E-score
CAGCACCA	-0.185
TAGGCTCA	-0.168
CGATGTTC	-0.0457
GGTCCGGA	0.216
GAACAAGA	0.107
ATTGGTGC	-0.00948
GCGGCGCA	0.0968
CTATACAA	0.121
TAATAATA	0.197
CACAACTG	-0.0717
GGCAGCAC	-0.172
CTTGGAAC	-0.0426
CAGATCCG	0.0975
AAATAGCC	-0.0222
ACAGCAGC	-0.0914
CACTCCAG	0.0151
CAGCTGAG	-0.0676
CTATACCA	0.0767
CGAGTCAG	-0.0187
AACTTGAT	0.321
AGTAGTAT	0.018
GGACGTAC	0.163
GAAGTAAA	0.122
AGTGAGAC	0.127
TCATGGGA	0.0847

Sequence	PBM E-score
CTAGGCGC	-0.184
CGACGGCG	-0.101
ACTTACCT	-0.128
CGCCAATA	0.059
AATGCCTA	-0.157
AATCGTGC	0.148
GTCCAAAA	0.318
CAACGAGC	-0.173
AAAAAGTC	0.418
AACGACAT	0.417
TGCAGACA	0.33
CTTTCAGA	0.127
AAGGCTGC	-0.112
CTGAACCA	-0.0175
TGAATCCA	0.126
CTAGTCGA	-0.109
ACCAGACA	0.188
GACCATGA	0.0706
CCTCGGGC	-0.203
